{"source": "PubChem BioAssay (NCATS)", "key": {"[1]": {"assay": "NFAT Signaling Pathway (AID 444);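 further: carbachol stimulus at about its EC50 of 1 µM final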", "conditions": "Jurkat NFAT-bla M1, carbachol, beta-lactamase ratio, 5 h; at 17.2 µM (top of the series) unless noted", "in_short": "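Jurkat cells with NFAT-driven β-lactamase reporter and co-expressed M1 receptor, stimulated with carbachol (final 1 uM, ~EC50), compound titration, 5 h at 37 °C. CCF4 loaded 1 h at RT; 460/530 nm ratio gave %activity and AC50.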"}, "[2]": {"assay": "Stat Signaling Pathway (AID 446);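 further: ME-180 cervical cancer cells given 40 pM IL-6 alongside compound; SIE-controlled beta-lactamase reporter measured as 460/530 nm FRET emission ratio; top concentration of the series differs between compounds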", "conditions": "ME-180 SIE beta-lactamase reporter, IL-6 stimulated, 5 h; at 7.69 µM (top of the series) unless noted", "in_short": "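Screening format detects activators and inhibitors alike: ME-180 SIE-bla cells stimulated at 40 pM IL-6 for 5 hrs with compound, then dual-emission beta-lactamase read at 405 nm excitation.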"}}, "note": "Inconclusive means that the source gave no clear call. Such entries were picked first, then a sample of the others. Active and inactive are the calls of the source. The call rests on the fitted dose curve; in most records, active means well fitted curve in either direction with a large enough effect (not every such curve was filed as active); inconclusive means small, poorly fitted or top-dose-only effect, or another doubt; inactive means flat fitted curve, though single readings scatter. On the % scale 0 is the no-effect control and ±100 the full control effect.", "data": [{"smiles": "Cc1ccc(-n2ncc3c(N4CCC(C(N)=O)CC4)ncnc32)c(C)c1", "values": [{"measurement": "activity change, negative = inhibition", "setting": "[1]", "result": "inconclusive: 32.5% [activator]"}, {"measurement": "activity, negative = inhibition", "setting": "[2]", "result": "inactive: -2.42% [at 17.2 µM]"}]}, {"smiles": "COC(=O)C(C)Sc1nc2c(c(=O)n(C)c(=O)n2C)n1CCC(C)C", "note": "(stereo not drawn)", "values": [{"measurement": "activity change, negative = inhibition", "setting": "[1]", "result": "inactive: 7.85%"}, {"measurement": "activity, negative = inhibition", "setting": "[2]", "result": "inactive: -10.8% [at 17.2 µM]"}]}, {"smiles": "CN(C)CCC[C@@H]1c2ccccc2Oc2ccc(C(F)(F)F)cc21", "values": [{"measurement": "activity change, negative = inhibition", "setting": "[1]", "result": "inconclusive: -77.4% [inhibitor] [at 7.69 µM]"}, {"measurement": "activity, negative = inhibition", "setting": "[2]", "result": "inactive: 4.88%"}]}, {"smiles": "COc1cc([C@@H]2[C@H]3CNCC=C3C(C#N)=C(N)C2(C#N)C#N)ccc1OC(C)C", "values": [{"measurement": "activity change, negative = inhibition", "setting": "[1]", "result": "inconclusive: 56.5% [activator]"}, {"measurement": "activity, negative = inhibition", "setting": "[2]", "result": "inactive: 10.8% [at 17.2 µM]"}]}, {"smiles": "CCCCOc1ccc(C(=O)N2CCCC2C(=O)O)cc1", "note": "(stereo not drawn)", "values": [{"measurement": "activity change, negative = inhibition", "setting": "[1]", "result": "inactive: -4.49%"}, {"measurement": "activity, negative = inhibition", "setting": "[2]", "result": "inactive: 9.6% [at 17.2 µM]"}]}, {"smiles": "CCOc1ccc(S(=O)(=O)NC(C)(C)C)cc1-c1nc2c(C(C)(C)C)nn(C)c2c(=O)[nH]1", "values": [{"measurement": "activity change, negative = inhibition", "setting": "[1]", "result": "inconclusive: -103% [inhibitor]"}, {"measurement": "activity, negative = inhibition", "setting": "[2]", "result": "inconclusive: -48.4% [inhibitor] [at 17.2 µM]"}]}, {"smiles": "Cc1c(NC(=O)c2coc(=O)c(Br)c2)c(=O)n(-c2ccccc2)n1C", "values": [{"measurement": "activity change, negative = inhibition", "setting": "[1]", "result": "active: -128%"}, {"measurement": "activity, negative = inhibition", "setting": "[2]", "result": "inconclusive: -52.3% [inhibitor] [at 17.2 µM]"}]}, {"smiles": "CCCCCn1c2nc3ccccc3nc2c2c(=O)n(CC(C)C)cnc21", "values": [{"measurement": "activity change, negative = inhibition", "setting": "[1]", "result": "inconclusive: -12.3% [inhibitor]"}, {"measurement": "activity, negative = inhibition", "setting": "[2]", "result": "inactive: -12.9% [at 17.2 µM]"}]}, {"smiles": "C=CCn1c(=S)[nH]c2nc3c(cc2c1=O)CCCC3", "values": [{"measurement": "activity change, negative = inhibition", "setting": "[1]", "result": "inconclusive: -39.5% [inhibitor]"}, {"measurement": "activity, negative = inhibition", "setting": "[2]", "result": "inactive: -11.2% [at 17.2 µM]"}]}]}
